# This is one part of the list. At the low end of the ranking the order means little.
# Target: GST-SBP-SLBP (stem-loop binding protein) (UniProt Q14493)
# Experiment: targeted RNA Bind-n-Seq;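 further: DESeq read counts versus GST-SBP nonspecific binding control pulldown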
# Settings: RBNS binding buffer: 25 mM Tris pH 7.5, 150 mM KCl, 3 mM MgCl2, 0.1% Tween, 0.5 mg/mL BSA, 1 mM DTT; 27 nM protein, 750 pM RNA pool; temperature not stated; high values mean tight binding
row,Sequence,binding signal (log2 fold change)
1,GGUCACGUCUCAAUCAACUCUUCCUCCAGGGAAACCCCUGGCUUACUCAACAGCUCGCAGUCAAG,0.144
2,GGUCACGUCUCAAUCAACUCUUCGUCAGGAGUUUCCUCCUGCAUAUUCAACAGCUCGCAGUCAAG,0.0823
3,GGUCACGUCUCAAUCAACUCAAUUCCAGGAGUUUGCUCCUGUAUUCUCAACAGCUCGCAGUCAAG,0.00483
4,GGUCACGUCUCAAUCAACUCAUCCGAGGGGGGGAAAACCCCUUUACCCUCACAAUCAACAGCUCGCAGUCAAG,-0.0066
5,GGUCACGUCUCAAUCAACUCUUUUUCAGGAGUUUCCUCCUGUAUUUUCAACAGCUCGCAGUCAAG,-0.0781
6,GGUCACGUCUCAAUCAACUCUAAAGAGGGGGGGAAAACCCCUUUGCCCUCAAUCUCAACAGCUCGCAGUCAAG,-0.121
7,GGUCACGUCUCAAUCAACUCUACUUCAGGAGUUUCCUCCUGUAUUCUCAACAGCUCGCAGUCAAG,0.0692
8,GGUCACGUCUCAAUCAACUCAUUUCCCAGGGAAAGCCCUGGUUAUUUCAACAGCUCGCAGUCAAG,-0.00142
9,GGUCACGUCUCAAUCAACUCAUUUUCAGGAGUUUACUCCUGCUAACUCAACAGCUCGCAGUCAAG,0.167
10,GGUCACGUCUCAAUCAACUCAUUAGAGGGGGGGAAAACCCCUUUGCCCUCACAUUCAACAGCUCGCAGUCAAG,0.0114
11,GGUCACGUCUCAAUCAACUCUAUCUCAGGAGUUUCCUCCUGUUUUUUCAACAGCUCGCAGUCAAG,0.17
12,GGUCACGUCUCAAUCAACUCAUCCUCCAGGGAAACCCCUGGUUAUUUCAACAGCUCGCAGUCAAG,-0.0566
13,GGUCACGUCUCAAUCAACUCAAAUGAGGGGGGGAAAACCCCUUUACCCUCCAAUUCAACAGCUCGCAGUCAAG,-0.175
14,GGUCACGUCUCAAUCAACUCUUUUUCAGGAGUUUCCUCCUGUAAUUUCAACAGCUCGCAGUCAAG,0.0153
15,GGUCACGUCUCAAUCAACUCUUCCCCCAGGGAAACCCCUGGCUUUCUCAACAGCUCGCAGUCAAG,0.0336
16,GGUCACGUCUCAAUCAACUCUUCAGAGGGGGGGAAAACCCCUUUGCCCUCAAAUUCAACAGCUCGCAGUCAAG,0.196
17,GGUCACGUCUCAAUCAACUCUACUCCCAGGGAAAUCCCUGGUUUUCUCAACAGCUCGCAGUCAAG,0.0802
18,GGUCACGUCUCAAUCAACUCAAGUCCCAGGGAAAACCCUGGUAAAUUCAACAGCUCGCAGUCAAG,0.0159
19,GGUCACGUCUCAAUCAACUCAGUCUCAGGAGUUUACUCCUGCUUAUUCAACAGCUCGCAGUCAAG,0.314
20,GGUCACGUCUCAAUCAACUCAUUUUCAGGAGUUUGCUCCUGCAUUCUCAACAGCUCGCAGUCAAG,0.125
21,GGUCACGUCUCAAUCAACUCAGUUUCCAGGGAAACCCCUGGCAUAUUCAACAGCUCGCAGUCAAG,0.0438
22,GGUCACGUCUCAAUCAACUCCCAAGAGGGGGGGAAAACCCCUUUGCCCUCAUUUUCAACAGCUCGCAGUCAAG,-0.383
23,GGUCACGUCUCAAUCAACUCGCAAGAGGGGGGGAAAACCCCUUUACCCUCAACAUCAACAGCUCGCAGUCAAG,-0.166
24,GGUCACGUCUCAAUCAACUCUUCUUCCAGGGAAAACCCUGGCUAUGUCAACAGCUCGCAGUCAAG,0.0846
25,GGUCACGUCUCAAUCAACUCAUCAGAGGGGGGGAAAACCCCUUUGCCCUCAUUAUCAACAGCUCGCAGUCAAG,-0.0478

row,Sequence,binding signal (log2 fold change)
1,GGUCACGUCUCAAUCAACUCAUUUCCCAGGGAAAACCCUGGCUUUUUCAACAGCUCGCAGUCAAG,-0.151
2,GGUCACGUCUCAAUCAACUCAUCCCCAGGAGUUUUCUCCUGUAUAUUCAACAGCUCGCAGUCAAG,0.137
3,GGUCACGUCUCAAUCAACUCUUACGAGGGGGGGAAAACCCCUUUACCCUCUUUCUCAACAGCUCGCAGUCAAG,0.0336
4,GGUCACGUCUCAAUCAACUCAUCGUCCAGGGAAAGCCCUGGCUUUUUCAACAGCUCGCAGUCAAG,0.162
5,GGUCACGUCUCAAUCAACUCUUCUUCCAGGGAAAGCCCUGGUAUAUUCAACAGCUCGCAGUCAAG,0.0314
6,GGUCACGUCUCAAUCAACUCUAUUUCCAGGGAAAUCCCUGGCAUGUUCAACAGCUCGCAGUCAAG,0.133
7,GGUCACGUCUCAAUCAACUCUAUCUCCAGGGAAAACCCUGGUAAAUUCAACAGCUCGCAGUCAAG,-0.277
8,GGUCACGUCUCAAUCAACUCUAUUCCAGGAGUUUCCUCCUGCUAAUUCAACAGCUCGCAGUCAAG,-0.113
9,GGUCACGUCUCAAUCAACUCUAUUUCCAGGGAAAGCCCUGGCUUUCUCAACAGCUCGCAGUCAAG,-0.318
10,GGUCACGUCUCAAUCAACUCAUCGUCAGGAGUUUUCUCCUGUUUAUUCAACAGCUCGCAGUCAAG,-0.0962
11,GGUCACGUCUCAAUCAACUCAUUUCCCAGGGAAAACCCUGGCUUUCUCAACAGCUCGCAGUCAAG,0.114
12,GGUCACGUCUCAAUCAACUCUUCCUCAGGAGUUUUCUCCUGUAUUCUCAACAGCUCGCAGUCAAG,-0.0396
13,GGUCACGUCUCAAUCAACUCUUCUCCAGGAGUUUCCUCCUGUUUAUUCAACAGCUCGCAGUCAAG,0.0101
14,GGUCACGUCUCAAUCAACUCAGUCCCAGGAGUUUACUCCUGCAAAUUCAACAGCUCGCAGUCAAG,-0.0653
15,GGUCACGUCUCAAUCAACUCAUCCCCCAGGGAAACCCCUGGUAUUCUCAACAGCUCGCAGUCAAG,0.14
16,GGUCACGUCUCAAUCAACUCAAUCGCAGGAGUUUUCUCCUGGUAUCUCAACAGCUCGCAGUCAAG,-0.0826
17,GGUCACGUCUCAAUCAACUCGUUUUCAGGAGUUUUCUCCUGUUUUCUCAACAGCUCGCAGUCAAG,0.053
18,GGUCACGUCUCAAUCAACUCAUUUUCAGGAGUUUACUCCUGCAUUUUCAACAGCUCGCAGUCAAG,-0.136
19,GGUCACGUCUCAAUCAACUCCUCAGAGGGGGGGAAAACCCCUUUACCCUCCUUAUCAACAGCUCGCAGUCAAG,0.431
20,GGUCACGUCUCAAUCAACUCUUACGAGGGGGGGAAAACCCCUUUACCCUCAUUCUCAACAGCUCGCAGUCAAG,0.166
21,GGUCACGUCUCAAUCAACUCUAUUUCCAGGGAAACCCCUGGUAUACUCAACAGCUCGCAGUCAAG,0.0287
22,GGUCACGUCUCAAUCAACUCUUUUCCAGGAGUUUCCUCCUGUUUUUUCAACAGCUCGCAGUCAAG,-0.0353
23,GGUCACGUCUCAAUCAACUCUUUAGAGGGGGGGAAAACCCCUUUACCCUCACAUUCAACAGCUCGCAGUCAAG,-0.184
24,GGUCACGUCUCAAUCAACUCAAUUUCAGGAGUUUCCUCCUGCUAUCUCAACAGCUCGCAGUCAAG,-0.0542
25,GGUCACGUCUCAAUCAACUCUUCUUCCAGGGAAAUCCCUGGUAAUCUCAACAGCUCGCAGUCAAG,0.043

row,Sequence,binding signal (log2 fold change)
1,GGUCACGUCUCAAUCAACUCAUCUCCAGGAGUUUUCUCCUGUUUUUUCAACAGCUCGCAGUCAAG,-0.112
2,GGUCACGUCUCAAUCAACUCAAUCCCAGGAGUUUCCUCCUGCAUUUUCAACAGCUCGCAGUCAAG,-0.0288
3,GGUCACGUCUCAAUCAACUCUACGCCAGGAGUUUUCUCCUGUUAUUUCAACAGCUCGCAGUCAAG,0.147
4,GGUCACGUCUCAAUCAACUCUUUCUCAGGAGUUUACUCCUGCAAUUUCAACAGCUCGCAGUCAAG,0.112
5,GGUCACGUCUCAAUCAACUCUAGGUCAGGAGUUUCCUCCUGUAAUUUCAACAGCUCGCAGUCAAG,-0.146
6,GGUCACGUCUCAAUCAACUCACUAGAGGGGGGGAAAACCCCUUUGCCCUCACUUUCAACAGCUCGCAGUCAAG,-0.216
7,GGUCACGUCUCAAUCAACUCUUUUCCCAGGGAAAACCCUGGCUAACUCAACAGCUCGCAGUCAAG,-0.101
8,GGUCACGUCUCAAUCAACUCUACUCCCAGGGAAAGCCCUGGCUUUUUCAACAGCUCGCAGUCAAG,-0.0809
9,GGUCACGUCUCAAUCAACUCAAGUCCAGGAGUUUACUCCUGCUAUCUCAACAGCUCGCAGUCAAG,0.254
10,GGUCACGUCUCAAUCAACUCCCAAGAGGGGGGGAAAACCCCUUUACCCUCAAAUUCAACAGCUCGCAGUCAAG,0.0813
11,GGUCACGUCUCAAUCAACUCUUCCCCCAGGGAAAUCCCUGGUUAUCUCAACAGCUCGCAGUCAAG,0.208
12,GGUCACGUCUCAAUCAACUCUAUCCCCAGGGAAAGCCCUGGUAAUCUCAACAGCUCGCAGUCAAG,-0.293
13,GGUCACGUCUCAAUCAACUCAAUUUCCAGGGAAAUCCCUGGUUUUUUCAACAGCUCGCAGUCAAG,-0.0357
14,GGUCACGUCUCAAUCAACUCAAUCCCAGGAGUUUACUCCUGUUAACUCAACAGCUCGCAGUCAAG,-0.132
15,GGUCACGUCUCAAUCAACUCACACGAGGGGGGGAAAACCCCUUUACCCUCAACUUCAACAGCUCGCAGUCAAG,-0.107
16,GGUCACGUCUCAAUCAACUCAUUCGAGGGGGGGAAAACCCCUUUACCCUCAUUCUCAACAGCUCGCAGUCAAG,-0.37
17,GGUCACGUCUCAAUCAACUCAAUUUCCAGGGAAAUCCCUGGCUAACUCAACAGCUCGCAGUCAAG,0.199
18,GGUCACGUCUCAAUCAACUCUAUCGCAGGAGUUUACUCCUGGUAUUUCAACAGCUCGCAGUCAAG,0.0765
19,GGUCACGUCUCAAUCAACUCAUCUUCCAGGGAAAUCCCUGGUUAAUUCAACAGCUCGCAGUCAAG,-0.0583
20,GGUCACGUCUCAAUCAACUCAAUUCCCAGGGAAAGCCCUGGUUUUCUCAACAGCUCGCAGUCAAG,-0.0102
21,GGUCACGUCUCAAUCAACUCAAUCCCAGGAGUUUACUCCUGUUUUUUCAACAGCUCGCAGUCAAG,0.0279
22,GGUCACGUCUCAAUCAACUCAAUAGAGGGGGGGAAAACCCCUUUGCCCUCAAACUCAACAGCUCGCAGUCAAG,0.175
23,GGUCACGUCUCAAUCAACUCUACUCCCAGGGAAACCCCUGGCUUACUCAACAGCUCGCAGUCAAG,0.229
24,GGUCACGUCUCAAUCAACUCUACUUCCAGGGAAAUCCCUGGUUUUUUCAACAGCUCGCAGUCAAG,-0.107

# — paper PMC5892938
